According to PubChem BioAssay AID488969 (Vanderbilt High Throughput Screening Facility, 2010):
In all, about 110,000 compounds were measured (“z-score”: median about -0.1, highest 2% from about 2 on). Some of the results follow. The source made the active and inactive calls.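 Rule for the calls: active = z-score in the third read window above 3 or below -3; inactive = the rest.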

biological target: Metabotropic glutamate receptor 8 (Rattus norvegicus) (UniProt P70579); test: mGluR8 Gi/Go-coupled signaling modulation – cell-based, rat, thallium flux, HTS, primary screen (AID 488969); settings: HEK293 rat mGluR8, GIRK (G protein-gated inwardly rectifying potassium channel) thallium flux, FluoZin2; at 10 µM; stronger effect = higher value; submaximal glutamate (EC20) added with thallium
UniProt P70579, sequence (P70579 whole entry, looked up): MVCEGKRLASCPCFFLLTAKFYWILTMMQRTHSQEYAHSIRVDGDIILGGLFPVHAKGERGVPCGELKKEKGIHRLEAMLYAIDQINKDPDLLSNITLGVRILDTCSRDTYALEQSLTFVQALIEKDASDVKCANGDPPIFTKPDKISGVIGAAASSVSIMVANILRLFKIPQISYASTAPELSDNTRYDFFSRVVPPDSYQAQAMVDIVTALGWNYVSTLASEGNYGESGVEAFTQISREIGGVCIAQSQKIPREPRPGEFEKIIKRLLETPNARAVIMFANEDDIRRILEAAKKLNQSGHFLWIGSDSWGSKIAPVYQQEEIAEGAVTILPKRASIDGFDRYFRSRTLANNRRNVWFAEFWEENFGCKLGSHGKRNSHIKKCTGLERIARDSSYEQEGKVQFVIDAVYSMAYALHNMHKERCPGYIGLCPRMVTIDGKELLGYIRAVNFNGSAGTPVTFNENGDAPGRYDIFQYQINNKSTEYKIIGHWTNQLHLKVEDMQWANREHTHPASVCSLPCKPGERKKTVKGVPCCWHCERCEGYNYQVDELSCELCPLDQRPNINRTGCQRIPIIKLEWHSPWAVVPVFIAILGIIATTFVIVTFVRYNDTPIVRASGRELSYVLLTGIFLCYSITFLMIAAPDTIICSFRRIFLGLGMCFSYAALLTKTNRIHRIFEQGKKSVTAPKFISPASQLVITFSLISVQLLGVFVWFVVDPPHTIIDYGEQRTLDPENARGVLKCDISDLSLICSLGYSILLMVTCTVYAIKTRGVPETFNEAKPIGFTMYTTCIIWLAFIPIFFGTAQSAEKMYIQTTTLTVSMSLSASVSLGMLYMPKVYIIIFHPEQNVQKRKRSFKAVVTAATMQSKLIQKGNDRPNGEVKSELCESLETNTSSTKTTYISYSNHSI

First: Cc1ccc(C)c(N(CC(=O)Nc2cc(Cl)ccc2Oc2ccccc2)S(C)(=O)=O)c1
Second: CSc1ccccc1NC(=O)COc1ccc(Cl)cc1C
The z-score of the first is higher: -0.202 for the first, -0.353 for the second.

Compared with `CCCN1CNC(=S)N(c2cc(C)ccc2C)C1`, `CCOCCCN1CN(Cc2ccccc2)CNC1=S` is higher in z-score: 0.168 for the first, 0.817 for the second.

Compared with `CCC(=O)NC(=S)Nc1ccccc1F`, `COc1ccccc1NC(=S)NC(=O)C(C)(C)C` is lower in z-score: 0.199 for the first, -0.494 for the second.

First: C=CCc1c(C)nc(SC(C)C)[nH]c1=O
Second: CCOc1ccc(C(=O)NCC(=O)OCc2c(C)noc2C)cc1
The z-score of the first is lower: -0.459 for the first, 1.1 for the second.

First: COC(=O)CSc1nnc(CNS(=O)(=O)c2ccc(C)cc2)n1C
Second: COc1ccc(S(=O)(=O)NCc2cn3c(C)csc3n2)cc1F
The z-score of the first is higher: 0.716 for the first, -0.0976 for the second.

Going from `c1ccc(-c2csc(Nc3ncccn3)n2)cc1` to `Oc1ccc(Cl)cc1-c1cc(-c2ccccc2)n[nH]1`, the z-score rises from -0.623 to 0.145.

Compared with `N#Cc1nc(-c2ccccc2F)oc1NCCc1ccccc1`, `N[C@@H](Cc1ccccc1)c1nnc(SCc2ccccc2F)o1` is higher in z-score: -0.937 for the first, 0.274 for the second.

First: COc1ccc(OCC(=O)O/N=C(\N)Cc2ccc(Cl)cc2)cc1
Second: Cc1ccc(C)c(OCC(=O)O/N=C(\N)c2ccccn2)c1
The z-score of the first is higher: -0.139 for the first, -0.331 for the second.

First: COC(=O)c1cc(NC2c3ncccc3C(=O)N2Cc2ccccc2)cc(C(=O)OC)c1 (stereo unspecified)
Second: Cc1ccc(NC(=O)CC2C(=O)N(Cc3ccccc3)C(=S)N2NC(=O)c2cccc(F)c2)c(C)c1 (stereo unspecified)
The z-score of the first is lower: -0.697 for the first, -0.362 for the second.

Going from `Cc1c(NC(=S)NC(=O)C(c2ccccc2)c2ccccc2)cccc1C(=O)O` to `Cc1ccccc1NC(=O)c1ccccc1O`, the z-score falls from -0.0288 to -0.396.

Going from `COc1ccc(Cl)cc1NC(=O)CS(=O)(=O)c1cccc2nsnc12` to `O=C(CCNS(=O)(=O)c1cccc2nsnc12)NCc1cccs1`, the z-score rises from 0.107 to 0.899.

Compared with `COc1cc(-c2nnn(CC(=O)N3CCOCC3)n2)cc(OC)c1OC`, `COc1ccc(C(=O)Sc2ccc(C)cc2)cc1OC` is higher in z-score: -0.0273 for the first, 0.102 for the second.

First: COC(=O)C1=C(C)N=C2SC(C)C(=O)N2C1c1ccc(C(=O)OC)cc1 (stereo unspecified)
Second: COC(=O)c1ccc(O)c(Sc2cc(C(=O)OC)ccc2O)c1
The z-score of the first is lower: 0.45 for the first, 0.542 for the second.

Going from `NC(=O)c1c(Nc2nc3c(F)cccc3s2)sc2c1CCCC2` to `O=C(c1c(F)cccc1F)N(Cc1ccccn1)C1CCCC1`, the z-score rises from -0.111 to 1.16.

Compared with `CC(=O)c1cc(C)ccc1OC(=O)c1cccc2nc(C)oc12`, `COC(=O)c1cc(OC)c(OC)cc1NC(=O)C(C)Sc1ccc(C)cc1` (stereo unspecified) is lower in z-score: 0.657 for the first, -0.208 for the second.

Going from `CCOCCCNC(=O)c1c[nH]c2ccc(C)cc2c1=O` to `CN(C)S(=O)(=O)c1ccc2c(c1)c(=O)c(C(=O)NCCCN1CCCCCC1)cn2C`, the z-score rises from -0.144 to -0.138.

Going from `CSc1oc(-c2ccc(F)cc2)nc1S(=O)(=O)c1ccccc1` to `Cc1ccc(-c2noc(C3CCCN(S(=O)(=O)c4ccc5ccccc5c4)C3)n2)o1` (stereo unspecified), the z-score falls from 0.521 to -0.536.

Going from `O=C(NCC(c1cccs1)N1CCOCC1)c1cc([N+](=O)[O-])ccc1Cl` (stereo unspecified) to `Cc1c(Cl)cccc1-c1ccc(C(=O)N2CCN(c3ccc([N+](=O)[O-])cc3)CC2)o1`, the z-score rises from 0.0103 to 0.808.

Compared with `CCOc1ccc(Nc2nc(C)cc(C)c2C#N)cc1`, `Cc1ccc(NC2=NC(c3ccccc3)n3c(nc(C)cc3=O)N2)cc1` (stereo unspecified) is lower in z-score: 0.266 for the first, -0.124 for the second.

Compared with `O=C(CCN1C(=O)CSC1=O)Nc1ccccc1`, `CC(C)=CC(=O)Nc1nnc(-c2ccccc2)s1` is lower in z-score: 0.165 for the first, -0.169 for the second.

Compared with `Cc1ccc(C2CC(C(F)(F)F)n3nc(C(=O)NCc4ccco4)cc3N2)cc1` (stereo unspecified), `O=C(CSc1nc(-c2ccccc2)c(-c2ccccc2)[nH]1)NCc1ccco1` is lower in z-score: 0.0979 for the first, -0.317 for the second.

Compared with `CCOc1ccc(CNC(=O)c2ccc(Sc3ccc(C)cc3)c(NC(C)=O)c2)cc1OC`, `CCOc1cc(/C=N\NC(=O)Cc2ccccc2)ccc1OCC(=O)Nc1ccc(C)c(C)c1` is higher in z-score: -0.0676 for the first, 0.591 for the second.

Compared with `O=c1nc2n(c3ccc(Br)cc13)CCS2`, `FC(F)(F)c1ccc2c(c1)nc1n2CCCC1` is lower in z-score: 0.0624 for the first, -0.297 for the second.

Going from `COc1ccc(-c2csc(NC(=O)CSc3nc(C)cs3)n2)cc1` to `Cc1cccc(NC(=O)CSc2ccc(C(N)=O)cc2[N+](=O)[O-])c1C`, the z-score rises from -0.238 to -0.0585.

Compared with `COc1ccccc1NC(=O)NC1(C(=O)N2CCC(O)CC2)CCCCC1`, `CCC(OC(=O)C1=Cc2ccccc2OC1)C(=O)NC1CCCC1` (stereo unspecified) is lower in z-score: -0.16 for the first, -0.169 for the second.

First: CCOC(=O)Cc1csc(Nc2c(C)n(C)n(-c3ccccc3)c2=O)n1
Second: CCOC(=O)c1cnn(-c2ccccc2)c1-n1cccc1
The z-score of the first is higher: 0.934 for the first, -0.242 for the second.

Compared with `COc1ccc(C(=O)/C=C/c2ccc(N3CCCCC3)c([N+](=O)[O-])c2)cc1`, `Cc1cc(OCC(=O)Nc2ccc(N3CCCC3)cc2)cc(C)c1Cl` is higher in z-score: -0.353 for the first, 0.138 for the second.

Compared with `CCn1c(SCC(=O)c2ccccc2)nnc1-c1cccs1`, `C/C(=N\NC(=O)c1ccccc1)c1ccc(C)c([N+](=O)[O-])c1` is lower in z-score: -0.252 for the first, -0.308 for the second.

Compared with `Cn1cnc2c(N3CCCCC3)nccc21`, `Clc1ccc2nc(CN3CCCCC3)cn2c1` is higher in z-score: -0.0619 for the first, 0.415 for the second.

Compared with `O=C(c1ccsc1)N1CCN(C(=O)c2cccs2)CC1`, `O=C(O)/C=C/C(=O)N1CCN(c2ccccc2F)CC1` is higher in z-score: -0.208 for the first, -0.157 for the second.

Going from `CCC(C)(C)n1nnnc1C(C(C)C)N1CCSCC1` (stereo unspecified) to `CC1Cc2ccccc2N1C(=O)CSc1nnnn1C` (stereo unspecified), the z-score falls from 0.805 to -0.0139.

Going from `O=C(OCCN1C(=O)CCC1=O)c1ccc(S(=O)(=O)N2CCCCC2)cc1` to `CCOC(=O)N1CCN(C(=O)C2CCN(S(=O)(=O)c3c(C)cc(C)cc3C)CC2)CC1`, the z-score rises from -1.06 to -0.267.

First: CC12CCC(C(=O)N3CCN(Cc4ccccc4)CC3)(OC1=O)C2(C)C (stereo unspecified)
Second: CN1CCCN(C(=O)/C=C/c2ccc(F)cc2)CC1
The z-score of the first is higher: -0.0844 for the first, -0.117 for the second.

First: Cc1cc(NC(=O)c2ccoc2C)no1
Second: COc1ccc(OC)c(C(C)NC(=O)c2ccco2)c1 (stereo unspecified)
The z-score of the first is lower: -0.105 for the first, 0.807 for the second.

Going from `O=C(O)c1ccc(-c2cccc(Cl)c2)o1` to `COC(=O)c1nc(-c2ccccc2)oc1N(C)C`, the z-score falls from -0.269 to -0.306.

Going from `CC(C(=O)OCn1nnc2ccccc2c1=O)N1C(=O)c2ccccc2C1=O` (stereo unspecified) to `Cc1cc2nn(-c3cccc4ccccc34)nc2cc1N`, the z-score rises from -0.219 to -0.113.

Compared with `Cc1ccc(NC(=O)CN(C)C(=O)CSc2nc3ccccc3o2)cc1`, `CCCS(=O)(=O)c1nc(S(=O)(=O)c2ccc(C)cc2)c(N2CCc3ccccc3C2)s1` is lower in z-score: 0.0381 for the first, -0.151 for the second.

First: Cc1ccc2nc(/N=C(\N)NC(=O)N3c4ccccc4Sc4ccccc43)nc(C)c2c1
Second: S=c1[nH]nc(-c2ccc3ccccc3n2)n1-c1ccccc1
The z-score of the first is lower: -0.291 for the first, 0.119 for the second.

Going from `Cc1nn(C)cc1C(C(=O)NC1CCCCC1)N(C(=O)Cn1nnc2ccccc21)c1ccc(F)cc1` (stereo unspecified) to `Cc1cc(C(=O)Cn2cncn2)c(C)n1CCc1ccc(F)cc1`, the z-score rises from 0.0895 to 0.332.

First: Cc1cc2oc(C(=O)NCc3ccncc3)c(C)c2cc1C
Second: Cc1c(C(=O)NCCc2ccc3c(c2)OCCO3)oc2ccccc12
The z-score of the first is higher: 0.601 for the first, -0.63 for the second.

First: CC(C)C(=O)Nc1c2c(nc3c1CCC3)CCCC2
Second: Cc1cc(C)c(NC(=O)CN2CCN3CCCC3C2)c(C)c1 (stereo unspecified)
The z-score of the first is higher: -0.105 for the first, -0.118 for the second.

Going from `CCC(=O)NCCCCNC(=O)CC` to `CCCCCCN=CC1=C(O)C(C(=O)OC)C(C)(C)CC1=O` (stereo unspecified), the z-score rises from 0.217 to 1.67.

Going from `COC(=O)Cc1c(C)c2ccc(O)c(CN3CCCC(C)C3)c2oc1=O` (stereo unspecified) to `CCOC(=O)C1CCN(Cc2coc3c(Cl)cc(Cl)cc3c2=O)CC1`, the z-score falls from -0.199 to -0.853.

First: COC(=O)C(CCSC)NC(=O)Cn1ncc2c(=O)oc3ccccc3c21 (stereo unspecified)
Second: CCN1C(=O)c2cccc3c(S(=O)(=O)NCc4cccnc4)ccc1c23
The z-score of the first is lower: -0.652 for the first, -0.0876 for the second.

Compared with `COC(=O)[C@@H](NC(=O)Nc1ccc2c(c1)OCCO2)C(C)C`, `CC(C)CCNC(=O)NC(=O)COc1c(F)c(F)cc(F)c1F` is lower in z-score: 0.876 for the first, -0.275 for the second.

Compared with `Cn1c(CSCc2ccc(Cl)c(Cl)c2)nnc1SCC(=O)Nc1nccs1`, `NCCc1nnc(SCc2ccccc2)o1` is higher in z-score: -0.345 for the first, -0.306 for the second.

Compared with `O=C1c2ccccc2CCC12N=NCC2c1ccc(Br)cc1` (stereo unspecified), `O=C(Nc1ccc2ccccc2c1)Nc1ccc2snnc2c1` is higher in z-score: -0.528 for the first, -0.459 for the second.

Going from `O=C(CNC(=O)c1ccccn1)N/N=C/c1ccccc1` to `O=C(Nc1ccccn1)C(NS(=O)(=O)c1cccc2nsnc12)c1ccccc1` (stereo unspecified), the z-score falls from 0.226 to -0.0327.

Compared with `C=CCN1C(=NC(=O)CCC)SC2CS(=O)(=O)CC21` (stereo unspecified), `C=CCn1c(O)c(N=NC(=O)CNC(=O)/C=C/c2ccco2)c2ccccc21` is lower in z-score: -0.313 for the first, -0.524 for the second.

Going from `COc1ccc(N2C(=O)CC(SCC(=O)O)C2=O)cc1` (stereo unspecified) to `CC(C)OC(=O)c1nnc(Cc2ccc(F)cc2)o1`, the z-score falls from -0.0131 to -0.69.

First: CC(C)(Oc1ccc(Cl)cc1)C(=O)NCCCn1ccnc1
Second: Cc1ccc(S(=O)(=O)N/N=C/c2cccn2-c2ccc(Cl)cc2)cc1
The z-score of the first is lower: -0.75 for the first, -0.6 for the second.

Going from `Cc1cc(=O)oc2cc(OCc3cc4c(cc3Cl)OCO4)ccc12` to `Fc1ccccc1Cn1nnc(-c2ccc3c(c2)OCO3)n1`, the z-score falls from -0.117 to -0.275.

First: COc1ccc(C(=O)Nc2ccc(NC(=O)c3cccs3)cc2)cc1[N+](=O)[O-]
Second: Fc1ccc(NC(=S)NCc2cccs2)cc1
The z-score of the first is lower: -0.114 for the first, 0.11 for the second.

Going from `O=C(Nc1cnccn1)c1ccncc1` to `COCCN(CCOC)S(=O)(=O)c1ccc(C(=O)Nc2nnc(C)o2)cc1`, the z-score rises from -0.0208 to 0.0793.

First: Cc1ccc(-c2[nH]nc3c2C(c2cccnc2)C(C#N)=C(N)O3)cc1 (stereo unspecified)
Second: CN1C(=S)SC(N2OC3C(=O)N(c4ccccc4)C(=O)C3C2c2ccccc2)C1(C)C (stereo unspecified)
The z-score of the first is lower: -0.279 for the first, 0.107 for the second.

Compared with `C=CCN(c1cccc(C(F)(F)F)c1)S(=O)(=O)c1cccc(C(=O)OCC(=O)Nc2ccccc2)c1`, `O=c1[nH]c(SCc2nc3ccccc3c(=O)n2-c2ccccc2C(F)(F)F)nc2ccccc12` is lower in z-score: 0.214 for the first, 0.13 for the second.

First: O=C(O)CSc1ncnc2nc[nH]c12
Second: COc1ccccc1OCc1ccc(C(=O)NCCN(C)C)o1
The z-score of the first is lower: -0.258 for the first, 0.296 for the second.

Compound `CC(C)(C)NC(=O)C1CC(=O)OC1(C)C` (stereo unspecified) has a z-score of 0.00384.

With `COCCCN1C(=O)C(=O)/C(=C(/O)c2ccc(C)cc2)C1c1ccccc1` (stereo unspecified) the z-score was active: -4.28.
